Some of the results follow. At the low end of the ranking, values are background and their order means little.

The experiment concerns MYC (p64) + MAX (p21), in MYC:MAX. Nature of the experiment: protein-binding microarray (anti-MAX antibody). The settings on record: PBM: 15 mM Tris-HCl pH 7.5, 100 mM KCl, 0.075% NP40, 7.5 mM beta-mercaptoethanol, 375 ng/ul BSA, 8 ng/ul poly(dA-dT):(dA-dT), 550 ng complex, 60 min, room …; high values mean tight binding; double strand, one strand shown; sequences stand for … in CCGGC…TTAATAGCTAAGATTACTATATCGACG
Take TGAGGTTCGGTA: the binding signal (log2 normalized fluorescence) came to 0.0606. TGATCTTTTGTA: the binding signal (log2 normalized fluorescence) was -0.0479.

On to TGAGTTTAGGTA, for which the binding signal (log2 normalized fluorescence) is -0.0854. The result for TGACCGGCGGTA reads 0.135; that for TGCCTCGTGGTA, 0.797; that for TGAATGTCTGTA, 0.216. Turning to TGATCGTTCGTA, the binding signal (log2 normalized fluorescence) was determined as 0.0801. As for TGATACGACGTA, the binding signal (log2 normalized fluorescence) is -0.0183. Next, TGAGTCTAAGTA: -0.108; TGAGGCTGCGTA: 0.0498.

As to TGATTCCCTGTA, the binding signal (log2 normalized fluorescence) is -0.0621. The result for TGAGGGAATGTA reads 0.25; that for TGAAAAACAGTA, -0.0882; that for TGATTGGCAGTA, -0.0446.

Consider TGATACAGAGTA, for which the binding signal (log2 normalized fluorescence) is -0.122.

TGATAAATTGTA: the binding signal (log2 normalized fluorescence) was -0.0436.

TGATTAGGGGTA: the binding signal (log2 normalized fluorescence) was 0.174. Turning to TGAAGTCGGGTA, the binding signal (log2 normalized fluorescence) is -0.102. The result for TGGCACGTGGTT reads 0.67; that for TGAGATCGGGTA, -0.127; that for TGAGCCAATGTA, 0.00395.

For the sequence TGATTTCACGTA, the binding signal (log2 normalized fluorescence) came out at 0.111. Next, TGATGATACGTA: 0.00585; TGACACCTACTA: 0.18; TGAGGTGCCGTA: 0.158. Next, TGAGCCCGGGTA: -0.174; TGACAATCGGTA: 0.0244. Next, TGAGGCTATGTA: -0.0462; TGAGCGTGAGTA: 0.26. Regarding TGAAGATAGGTA, the binding signal (log2 normalized fluorescence) is -0.132. The result for TGACACGTTTGA reads 0.577. The result for TGATTCCATGTA reads 0.122.

Regarding TGAAATCGTGTA, the binding signal (log2 normalized fluorescence) came to 0.24. The result for TGAATCTTCGTA reads 0.00844; that for TGAATACCTGTA, 0.159.

With TGACTGAACGTA, the binding signal (log2 normalized fluorescence) stood at 0.112. Next, TGAATCGCGGTA: 0.27; TAATTCGTGGTA: 0.282; TGACAGCAGGTA: 0.122. The result for TGATCAGCTGTA reads 0.181; that for TGAGACAGAGTA, -0.113; that for TGTCACCTGGTA, 0.424.

In the case of TGACACCAGGTA, the binding signal (log2 normalized fluorescence) was 0.225. Next, GGACACGGGGTA: 0.668. The result for TGAGGGACGGTA reads 0.0602; that for TGACACTCCGTA, 0.137; that for TGAAGACGTGTA, 0.325. Next, TGAGCCTTTGTA: -0.127; TGAACGCTGGTA: 0.161; TGAAACCCCGTA: 0.269. For the sequence TGATGCAACGTA, the binding signal (log2 normalized fluorescence) stood at 0.297. Next, TGATTCAAAGTA: -0.0864; TGAGGAAACGTA: 0.074; TGACAACAAGTA: 0.234. Next, TGATGGCCGGTA: 0.201.

Turning to TGAGATCGAGTA, the binding signal (log2 normalized fluorescence) was -0.0161. Consider TGAGGTTATGTA, for which the binding signal (log2 normalized fluorescence) is -0.0648. The result for TGAGATGGGGTA reads 0.195; that for TGAGCGCAGGTA, 0.113.

Regarding TGAAGAGTAGTA, the binding signal (log2 normalized fluorescence) is 0.0724. The result for GGACACGGTGTA reads 0.262; that for TGATATCTGGTA, -0.00821; that for TGAAGGACGGTA, -0.11.

TGACACGTGTAT: the binding signal (log2 normalized fluorescence) is 0.766. For TGAATAATAGTA, the binding signal (log2 normalized fluorescence) is 0.0312.

In the case of TGAAATTTAGTA, the binding signal (log2 normalized fluorescence) is -0.187. The result for TCACACGTGGGC reads 0.832; that for AGACACGTTGTA, 0.628; that for TGAAAGTGGGTA, 0.0518.

With TGACCCTCAGTA, the binding signal (log2 normalized fluorescence) is -0.04. Next, TGATAGACTGTA: 0.0762. Next, TGATAAGTTGTA: -0.0983; TGAGTCTCTGTA: -0.162; TGAATCATTGTA: 0.0491. The result for TGAGGCTTAGTA reads -0.218; that for TGAGGTCCGGTA, -0.0494; that for TGATACTATGTA, 0.052. With CGCCACGTGGTA, the binding signal (log2 normalized fluorescence) is 0.88. The result for TGGATCGTGGTA reads 0.28; that for TGAAGCCAGGTA, 0.138; that for TGATATCCGGTA, -0.186. The result for TGACACGGGGTC reads 0.583.

TGAAATATCGTA: the binding signal (log2 normalized fluorescence) is -0.00984.

With TGAAGATTCGTA, the binding signal (log2 normalized fluorescence) was -0.165. For the sequence TGATCGCTAGTA, the binding signal (log2 normalized fluorescence) was -0.0289. Turning to TGAGACGTTGTA, the binding signal (log2 normalized fluorescence) was found to be 0.23. Regarding TGAACAGGCGTA, the binding signal (log2 normalized fluorescence) is -0.0122. Next, TGAGTCTCGGTA: -0.0649. Next, TGAGTTAGTGTA: -0.0573; TGATTACCTGTA: -0.0585; TGAATTACGGTA: 0.0239. Next, TGATTTTCCGTA: -7.43e-05. With TGAAACCTAGTA, the binding signal (log2 normalized fluorescence) was 0.0966.

For the sequence GGACACGTGGAG, the binding signal (log2 normalized fluorescence) stood at 0.745. Next, TGAGTGTAAGTA: -0.0332; TGAGATGAAGTA: -0.216; TGACATCGCGTA: 0.317. For TGATCCAGTGTA, the binding signal (log2 normalized fluorescence) was -0.0273. For the sequence TGACCTCATGTA, the binding signal (log2 normalized fluorescence) is 0.575. The result for TGACCGTGGGTA reads 0.187; that for TGATTCCCGGTA, -0.0528; that for TGATTCCCAGTA, -0.0291.

On to TGACGACTGGTA, for which the binding signal (log2 normalized fluorescence) was 0.0584. Next, TGACGTGATGTA: 0.179; TGACTATGAGTA: -0.185; TGAGTCGCCGTA: -0.161. Next, TGAATCCAGGTA: -0.118; TGAGAGTTAGTA: -0.177; CCAAGGCGGAAC: 0.102. The result for TGATGAAGAGTA reads -0.0648; that for TGACACGTATCA, 0.528.

Turning to TGAATGACCGTA, the binding signal (log2 normalized fluorescence) is 0.157. The result for TGAGTACTTGTA reads -0.0922. TGTCACTTGGTA: the binding signal (log2 normalized fluorescence) was determined as 0.295. Next, TGAAAGCACGTA: 0.323.

On to TGAGCCAGGGTA, for which the binding signal (log2 normalized fluorescence) is -0.17.

Take TGACCCGTGGTT: the binding signal (log2 normalized fluorescence) was 0.466. Next, TGACTGCTAGTA: 0.193; TGAGAGCTAGTA: -0.13; TGACGCGCGGTG: 0.426. In the case of TGACATTTGGTA, the binding signal (log2 normalized fluorescence) turned out to be 0.272.

As to TGAGTCGAAGTA, the binding signal (log2 normalized fluorescence) stood at 0.000133. Next, TGAGGATCGGTA: -0.0667. The result for TGGAACGTCGTA reads 0.17. The result for TGACGGGAAGTA reads -0.0847; that for TGAGAGGTAGTA, -0.0303; that for TGACCCTATGTA, 0.363. TGAGCTCAGGTA: the binding signal (log2 normalized fluorescence) came out at 0.0195. The result for TGACACGTGTTA reads 0.722; that for TGAATTAGGGTA, -0.045. The result for TGAGATAGCGTA reads -0.0662.

For TGATTACACGTA, the binding signal (log2 normalized fluorescence) turned out to be 0.293.

As for TGAAATCACGTA, the binding signal (log2 normalized fluorescence) was determined as 0.167. Next, TGAATGTTGGTA: 0.176; TGAGCTATTGTA: -0.126. The result for TGACGAACTGTA reads 0.121; that for TGAAGTTTGGTA, -0.221; that for TGAGGCCCAGTA, -0.151.
